{
  "source": "paper PMC6212790",
  "note": "The other results are listed elsewhere or left out. At the low end of the ranking the order means little.",
  "data": [
    {"target": "T1, GST-Rok-C97-191 (UniProt O34857)", "T1 sequence": "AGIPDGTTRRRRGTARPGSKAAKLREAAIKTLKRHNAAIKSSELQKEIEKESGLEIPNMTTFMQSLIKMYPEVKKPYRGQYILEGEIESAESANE", "test": "protein binding microarray;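 also: rank score from −0.5 (least bound) to 0.5 (best bound)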", "details": "Rok is a gene silencer of Bacillus subtilis; high values mean tight binding; most listed sequences are background and not binding sites; double strand, one strand shown", "units": {"binding signal": "E-score"}, "values": [
      {"sequence": "ATCGTAAC", "binding signal": 0.162},
      {"sequence": "AAACCGTT", "binding signal": -0.0352},
      {"sequence": "GAACGGGA", "binding signal": -0.108},
      {"sequence": "GGCGAGGA", "binding signal": -0.239},
      {"sequence": "CGGAGGTC", "binding signal": -0.272},
      {"sequence": "CCTCGGAC", "binding signal": -0.185},
      {"sequence": "CGGAGCGA", "binding signal": -0.155},
      {"sequence": "ATGTACAT", "binding signal": 0.377},
      {"sequence": "AAGCGCCT", "binding signal": -0.0269},
      {"sequence": "GTGGAATA", "binding signal": 0.208},
      {"sequence": "AAAGGACA", "binding signal": -0.115},
      {"sequence": "ATTAAAAC", "binding signal": 0.144},
      {"sequence": "AATTCGGA", "binding signal": 0.174},
      {"sequence": "CCCTGGCG", "binding signal": -0.256},
      {"sequence": "AACCCGAG", "binding signal": -0.128},
      {"sequence": "CACATCTC", "binding signal": 0.00587},
      {"sequence": "ATGAGACA", "binding signal": -0.0215},
      {"sequence": "CAGTGCAC", "binding signal": -0.0299},
      {"sequence": "CTCTCGAC", "binding signal": -0.0912},
      {"sequence": "CTGATGCC", "binding signal": -0.172},
      {"sequence": "AAGAATGA", "binding signal": 0.101},
      {"sequence": "ACATTACT", "binding signal": 0.263},
      {"sequence": "AGCCTGCA", "binding signal": -0.113},
      {"sequence": "CATACTAC", "binding signal": 0.284},
      {"sequence": "CCAAAGAA", "binding signal": -0.0436},
      {"sequence": "CTATCGAC", "binding signal": 0.176},
      {"sequence": "AAATGCAC", "binding signal": 0.0955},
      {"sequence": "CCGCAGAC", "binding signal": -0.128},
      {"sequence": "ATAGTTCG", "binding signal": 0.354},
      {"sequence": "GCACGTCC", "binding signal": -0.0878},
      {"sequence": "GAAATGGA", "binding signal": -0.0823},
      {"sequence": "GTTATATA", "binding signal": 0.31},
      {"sequence": "ACGGCCGT", "binding signal": -0.0467},
      {"sequence": "ACGGTCAT", "binding signal": -0.00187},
      {"sequence": "CATGCCAA", "binding signal": -0.12},
      {"sequence": "AGCTCATG", "binding signal": -0.059},
      {"sequence": "GGTACACA", "binding signal": 0.0356},
      {"sequence": "AAACGTAG", "binding signal": 0.109},
      {"sequence": "AGCAGTTC", "binding signal": -0.0114},
      {"sequence": "ACGGCTGC", "binding signal": 0.0759},
      {"sequence": "ATATAGGA", "binding signal": 0.185},
      {"sequence": "TAGTCAAA", "binding signal": 0.158},
      {"sequence": "CGGACGTC", "binding signal": 0.0407},
      {"sequence": "CGGGAGAC", "binding signal": -0.189},
      {"sequence": "GCAAACTA", "binding signal": 0.385},
      {"sequence": "GCGCCAGC", "binding signal": -0.0952},
      {"sequence": "CACGTTGA", "binding signal": 0.0325},
      {"sequence": "AGGGGGGA", "binding signal": -0.24},
      {"sequence": "ACACGGGG", "binding signal": -0.055},
      {"sequence": "TGAACTAA", "binding signal": 0.0629},
      {"sequence": "GGAGATCA", "binding signal": -0.0617},
      {"sequence": "CCTGATGA", "binding signal": -0.17},
      {"sequence": "CTGTTGGC", "binding signal": -0.158},
      {"sequence": "ACAGCATC", "binding signal": -0.0826},
      {"sequence": "GGATACGA", "binding signal": 0.0298},
      {"sequence": "GAGAAGAC", "binding signal": -0.0353},
      {"sequence": "AGGCTATC", "binding signal": -0.0801},
      {"sequence": "AGCCTAGG", "binding signal": -0.261},
      {"sequence": "CCTGCGGA", "binding signal": -0.211},
      {"sequence": "AAGGGCTG", "binding signal": -0.344},
      {"sequence": "ATCCGGAC", "binding signal": -0.0292},
      {"sequence": "TAGAGGAA", "binding signal": 0.0474},
      {"sequence": "AACCGCAG", "binding signal": 0.125},
      {"sequence": "CATGTTGA", "binding signal": -0.00675},
      {"sequence": "CCAATGAG", "binding signal": -0.226},
      {"sequence": "CTAAACCC", "binding signal": -0.17},
      {"sequence": "ACCTTATC", "binding signal": 0.0618},
      {"sequence": "CGTCTTCA", "binding signal": -0.0943},
      {"sequence": "GTTCCGCA", "binding signal": -0.0716},
      {"sequence": "ATCCTGCG", "binding signal": -0.171},
      {"sequence": "CCCCAATA", "binding signal": -0.162},
      {"sequence": "AGTTAGGC", "binding signal": -0.0909},
      {"sequence": "TAAAGCCA", "binding signal": 0.0799},
      {"sequence": "AAGCCTGA", "binding signal": -0.0501},
      {"sequence": "ATATACTC", "binding signal": 0.293},
      {"sequence": "ACCAATCG", "binding signal": -0.0341},
      {"sequence": "AACACGCA", "binding signal": -0.0481},
      {"sequence": "CTGTTGAC", "binding signal": -0.136},
      {"sequence": "AGTGTACC", "binding signal": 0.0716},
      {"sequence": "ATCCTCCG", "binding signal": -0.361},
      {"sequence": "GGCCGGCA", "binding signal": -0.245},
      {"sequence": "TGAAAGCA", "binding signal": 0.0344},
      {"sequence": "ACCGTGTG", "binding signal": -0.164},
      {"sequence": "ATTACTCG", "binding signal": 0.198},
      {"sequence": "GTAGCGAA", "binding signal": 0.0931},
      {"sequence": "GAACGCGA", "binding signal": -0.0129},
      {"sequence": "GACCCGTC", "binding signal": -0.321},
      {"sequence": "CGCGCACG", "binding signal": -0.144},
      {"sequence": "ACTTCGGG", "binding signal": -0.163},
      {"sequence": "ACAAACTG", "binding signal": 0.0787},
      {"sequence": "CGACTGAG", "binding signal": -0.0342},
      {"sequence": "CGGACCCG", "binding signal": -0.0626},
      {"sequence": "AAGACGCC", "binding signal": -0.207},
      {"sequence": "CGTCGGGA", "binding signal": -0.107},
      {"sequence": "CGGGAGGA", "binding signal": -0.219},
      {"sequence": "CCATACTA", "binding signal": 0.228},
      {"sequence": "ATACTGGA", "binding signal": 0.0235},
      {"sequence": "CTTCTGGC", "binding signal": -0.127},
      {"sequence": "GTCGACAA", "binding signal": -0.173},
      {"sequence": "CGAAGGGA", "binding signal": -0.0696},
      {"sequence": "ACGTCTAT", "binding signal": -0.0106},
      {"sequence": "TAACATCA", "binding signal": 0.188},
      {"sequence": "GGAACCAC", "binding signal": -0.338},
      {"sequence": "AGGGGCGG", "binding signal": -0.287},
      {"sequence": "GTGGTTTA", "binding signal": 0.132},
      {"sequence": "CCGGGGAC", "binding signal": -0.225},
      {"sequence": "CCCGGCAA", "binding signal": -0.113},
      {"sequence": "AAACACCC", "binding signal": 0.177},
      {"sequence": "GTCACACA", "binding signal": 0.0123}
    ]}
  ]
}
